The list shows a part of the results. The list includes weakly bound sequences.

This assay concerns the target T1, MBP-FoxP3dN (UniProt Q99JB6).
T1 sequence: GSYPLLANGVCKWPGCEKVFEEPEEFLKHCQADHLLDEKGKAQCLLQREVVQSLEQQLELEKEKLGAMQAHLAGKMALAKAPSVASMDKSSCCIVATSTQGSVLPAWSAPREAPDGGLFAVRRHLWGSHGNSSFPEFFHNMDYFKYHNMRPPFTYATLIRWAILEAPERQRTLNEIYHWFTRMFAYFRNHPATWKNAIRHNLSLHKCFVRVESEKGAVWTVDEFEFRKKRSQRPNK
The experiment in a line: PD-seq (MBP pull-down with sequencing). As to conditions: 20 mM Tris-HCl pH 7.5, 100 mM NaCl, 1.5 mM MgCl2, 0.4 uM protein, 0.1 uM dsDNA library, 30 min, room temperature, amylose pull-down; high values mean tight binding; double strand, one strand shown.
Take “GATGATTGTTCTCCCAGCTGATGAATTCTAGAAATCGAGTAAACAAATTTTCCTAATCTTTCTGTTCAAGCGCCATCTAC”: the binding signal (RPM ratio (pull-down/input)) was 0.269. The figure for “GATGATTGTTCTCCCAGCTGATGAATTTTTCTGTTCGAGTAAACAAATTTTCCTAATCTTTCTGTTCAAGCGCCATCTAC” is 0.264; for “GATGATTGTTCTCCCAGCTGATGAATTAACTTACTCGAGTAAACAAATTTTCCTAATCTTTCTGTTCAAGCGCCATCTAC” it is 0.694; for “GATGATTGTTCTCCCAGCTGATGAATTCCTGGGCTCGAGTAAACAAATTTTCCTAATCTTTCTGTTCAAGCGCCATCTAC” it is 0.186. Consider “GATGATTGTTCTCCCAGCTGATGAATTTACAGGCTCGAGTAAACAAATTTTCCTAATCTTTCTGTTCAAGCGCCATCTAC”, for which the binding signal (RPM ratio (pull-down/input)) came to 0.441. As for “GATGATTGTTCTCCCAGCTGATGAATTGGCGCCTTCGAGTAAACAAATTTTCCTAATCTTTCTGTTCAAGCGCCATCTAC”, the figure is 3.06; as for “GATGATTGTTCTCCCAGCTGATGAATTTGTTATTTCGAGTAAACAAATTTTCCTAATCTTTCTGTTCAAGCGCCATCTAC”, 7.62; as for “GATGATTGTTCTCCCAGCTGATGAATTTACTCGCTCGAGTAAACAAATTTTCCTAATCTTTCTGTTCAAGCGCCATCTAC”, 0.399. The figure for “GATGATTGTTCTCCCAGCTGATGAATTTGGGCGCTCGAGTAAACAAATTTTCCTAATCTTTCTGTTCAAGCGCCATCTAC” is 0.605; for “GATGATTGTTCTCCCAGCTGATGAATTGCTGGCTTCGAGTAAACAAATTTTCCTAATCTTTCTGTTCAAGCGCCATCTAC” it is 0.508.

In the case of “GATGATTGTTCTCCCAGCTGATGAATTCAGTGGTTCGAGTAAACAAATTTTCCTAATCTTTCTGTTCAAGCGCCATCTAC”, the binding signal (RPM ratio (pull-down/input)) came out at 1.28. As for “GATGATTGTTCTCCCAGCTGATGAATTTTCTGGGTCGAGTAAACAAATTTTCCTAATCTTTCTGTTCAAGCGCCATCTAC”, the figure is 0.203; as for “GATGATTGTTCTCCCAGCTGATGAATTACCACTATCGAGTAAACAAATTTTCCTAATCTTTCTGTTCAAGCGCCATCTAC”, 0.53. As for “GATGATTGTTCTCCCAGCTGATGAATTACGTTGGTCGAGTAAACAAATTTTCCTAATCTTTCTGTTCAAGCGCCATCTAC”, the figure is 1.3; as for “GATGATTGTTCTCCCAGCTGATGAATTCCCTTGATCGAGTAAACAAATTTTCCTAATCTTTCTGTTCAAGCGCCATCTAC”, 0.24. As for “GATGATTGTTCTCCCAGCTGATGAATTAACGTGCTCGAGTAAACAAATTTTCCTAATCTTTCTGTTCAAGCGCCATCTAC”, the figure is 0.376.

In the case of “GATGATTGTTCTCCCAGCTGATGAATTCATCAGGTCGAGTAAACAAATTTTCCTAATCTTTCTGTTCAAGCGCCATCTAC”, the binding signal (RPM ratio (pull-down/input)) is 0.306. As for “GATGATTGTTCTCCCAGCTGATGAATTCAGAGGGTCGAGTAAACAAATTTTCCTAATCTTTCTGTTCAAGCGCCATCTAC”, the binding signal (RPM ratio (pull-down/input)) came out at 0.25. The figure for “GATGATTGTTCTCCCAGCTGATGAATTATTAACGTCGAGTAAACAAATTTTCCTAATCTTTCTGTTCAAGCGCCATCTAC” is 0.437.

In the case of “GATGATTGTTCTCCCAGCTGATGAATTCCGTGGTTCGAGTAAACAAATTTTCCTAATCTTTCTGTTCAAGCGCCATCTAC”, the binding signal (RPM ratio (pull-down/input)) was determined as 0.92. “GATGATTGTTCTCCCAGCTGATGAATTGTAATGATCGAGTAAACAAATTTTCCTAATCTTTCTGTTCAAGCGCCATCTAC”: the binding signal (RPM ratio (pull-down/input)) was found to be 1.02. The figure for “GATGATTGTTCTCCCAGCTGATGAATTTCAAACCTCGAGTAAACAAATTTTCCTAATCTTTCTGTTCAAGCGCCATCTAC” is 0.235; for “GATGATTGTTCTCCCAGCTGATGAATTATTTACCTCGAGTAAACAAATTTTCCTAATCTTTCTGTTCAAGCGCCATCTAC” it is 2.68; for “GATGATTGTTCTCCCAGCTGATGAATTGCCATTATCGAGTAAACAAATTTTCCTAATCTTTCTGTTCAAGCGCCATCTAC” it is 1.32. Turning to “GATGATTGTTCTCCCAGCTGATGAATTCACTGCCTCGAGTAAACAAATTTTCCTAATCTTTCTGTTCAAGCGCCATCTAC”, the binding signal (RPM ratio (pull-down/input)) was 0.362. Regarding “GATGATTGTTCTCCCAGCTGATGAATTCAGACGGTCGAGTAAACAAATTTTCCTAATCTTTCTGTTCAAGCGCCATCTAC”, the binding signal (RPM ratio (pull-down/input)) was determined as 0.228. On to “GATGATTGTTCTCCCAGCTGATGAATTTTCGATCTCGAGTAAACAAATTTTCCTAATCTTTCTGTTCAAGCGCCATCTAC”, for which the binding signal (RPM ratio (pull-down/input)) is 0.311. The figure for “GATGATTGTTCTCCCAGCTGATGAATTGTACTTATCGAGTAAACAAATTTTCCTAATCTTTCTGTTCAAGCGCCATCTAC” is 1.19; for “GATGATTGTTCTCCCAGCTGATGAATTGATCACGTCGAGTAAACAAATTTTCCTAATCTTTCTGTTCAAGCGCCATCTAC” it is 0.543. As for “GATGATTGTTCTCCCAGCTGATGAATTAGCAGACTCGAGTAAACAAATTTTCCTAATCTTTCTGTTCAAGCGCCATCTAC”, the figure is 0.288; as for “GATGATTGTTCTCCCAGCTGATGAATTGTCCTCCTCGAGTAAACAAATTTTCCTAATCTTTCTGTTCAAGCGCCATCTAC”, 0.37. In the case of “GATGATTGTTCTCCCAGCTGATGAATTCCGGCTGTCGAGTAAACAAATTTTCCTAATCTTTCTGTTCAAGCGCCATCTAC”, the binding signal (RPM ratio (pull-down/input)) turned out to be 0.302.
